# Test results: article PMC12136788
# Some of the results follow.
# B1: ENSG00000198589:be:win_2851|CDS|ENSG00000198589|bound_else_gene|NA|bound_elsewhere_windowed (ssRNA)
# RNA: GGGAGUUCUACAGUCCGACGAUCUCUUCAACUUCAGUUCAAGCAGCCUCUGGCAUUAGAAGGGAUAUUAAUGUUUCAGUAGGAUCCCAGCAACCAGAUACGAAGGAUUCUCCUGUCUGUCCUCAUUUCACCACAAAUGGUAAUCAACAGAGGAUUGAGCAUCA
# B2: chr11:62888716:62888817:+|3pUTR|ENSG00000168003|unk|FALSE|unique (ssRNA)
# RNA: GGGAGUUCUACAGUCCGACGAUCUUUUCUCUUUUUUAAAAACAAACAAACAAACUGUUGCAGAUUAUGAGUGAACCCCCAAAUAGGGUGUUUUCUGCCUUCAAAUAAAAGUCACCCCUGCAUGGUGAAGUCUUCCCUCUGCUUCAACAGAGGAUUGAGCAUCA
# B3: chrX:149548394:149548910:-|CDS|ENSG00000283697|control|control|control (ssRNA)
# RNA: GGGAGUUCUACAGUCCGACGAUCGCUACUACCUGGAUGGAAGGCACAGGGAUUCUUAGUAGUCUGGUUUACUCAGAUAAUGGUAGUGUAAUGUCUUUGUACAAUAUCUGUUACUAUGCUCUGUUGGCCUCCCUCUCAGUCAUGCAACAGAGGAUUGAGCAUCA
# B4: chr18:31624441:31624542:-|3pUTR|ENSG00000118276|unk|total|mutant (ssRNA)
# RNA: GGGAGUUCUACAGUCCGACGAUCAUUAAAUAUUCUAUUUUUAUAAAGAUAAAUACUCCGCCGAUAAAAACAAAUUUUAAGUUCCGUUUUCAGACACCGAAUUUCACUUUUGGAGGGGACCCUUGAAUGUCCGUUUCAUUCAAACAACAGAGGAUUGAGCAUCA
# B5: chr12:109281406:109281799:-|CDS|ENSG00000139445|control|control|control (ssRNA)
# RNA: GGGAGUUCUACAGUCCGACGAUCCGCCCUGCCGGACCUCAGCCCCAGCCCGCUCCCCCACCCCGCCAUGGGAAGGGCUCCUGUAGACUUCAUCAACAUCAGCACCGACAUGAACACUGAGGUGGAUGCCCUCGACCCGAGCAUCAACAGAGGAUUGAGCAUCA
# B6: chr1:27370145:27370587:-|three_prime_utr|ENSG00000142748|control|control|control (ssRNA)
# RNA: GGGAGUUCUACAGUCCGACGAUCCCAGUGCUGCCACUGCCCCCAUGAAUGACCCAGGGCAAUCCUGUCUCCUCUGUGGGCCUUAGUUUCCGCAUCUGAGAAAUGGCAAUCAUGAAACAGGAUGGUGCAACAGUGAAGAAUUUGCAACAGAGGAUUGAGCAUCA
# B7: chr4:177362735:177362840:+|3pUTR|ENSG00000109674|unk|FALSE|unique (ssRNA)
# RNA: GGGAGUUCUACAGUCCGACGAUCAAAGUGUUUUUAGUAUGCUUUUAGUCUCUUGUAACUGGGGAGAAGCAGUGUUUUUUUUUUAGGAAAGGAUUAUGCGACACAAUAAAAUAAGAUAUUCUGUCUGUAGUGAAUACAUUUCUCCAACAGAGGAUUGAGCAUCA
# B8: chr10:70435285:70435983:-|CDS|ENSG00000156574|control|control|control (ssRNA)
# RNA: GGGAGUUCUACAGUCCGACGAUCCAGGCCUCUCUCCAAGUGGCUGAAGCACCCUGGGGCCCUGGAGAAGCAGAUGUCCAGGGUAGCUGGAGAGUGCUGGCCGCGGCCCCCCACACCGCCUGCCACCAAUGUGCUCCUUAUGCUCAACAGAGGAUUGAGCAUCA
# B9: chr19:48404743:48404844:+|CDS|ENSG00000105464|unk|total|mutant (ssRNA)
# RNA: GGGAGUUCUACAGUCCGACGAUCCGAGCAACAGCUUCAGGUCAUCUUUGAGGUGCUGGAGGAGUAUGACUGGACGUCCUUUGCCGCCGUGACCACUCGUGCCCCUGGCCACCGGGCCUUCCUGUCCUACAUUGAGGUGCUGACCAACAGAGGAUUGAGCAUCA
# B10: chr16:57472207:57472321:-|3pUTR|ENSG00000125170|unk|FALSE|unique (ssRNA)
# RNA: GGGAGUUCUACAGUCCGACGAUCUCAAACUUUUGGUUGUGUGGGGUUUUUUGUUGUUUUUUGGGUUUUGUUUUUUAAUACUUUAGGGUCCUGAUUUGUGGGAACAGACCUUCUUGUAAAUAACCACUAUUUGAGUUGUGGCAGCAACAGAGGAUUGAGCAUCA
# B11: chr2:205796339:205796442:+|3pUTR|ENSG00000118257|msi1|FALSE|unique (ssRNA)
# RNA: GGGAGUUCUACAGUCCGACGAUCAAGUCCGCAAGUACUGUGGACAAGAAUGCUUAACCAUGCUGCUUCAGCCUUGAGAGACCUAGGUUCUUACACAUAUGCACACACGCAUACACACAUGCACGCACACACACAUACACACAUCAACAGAGGAUUGAGCAUCA
# B12: chr10:95311796:95311897:-|3pUTR|ENSG00000095637|unk|total|mutant (ssRNA)
# RNA: GGGAGUUCUACAGUCCGACGAUCCAGACACCGAUUUUUCUGUUCAUUUAUUUUUCUUCAUUGCAGUGGAUUGAUUUGAUAAACCGAUGUGUUGAAUUACUACAUUUGCUGUACAUAUUAUUUAAUAAACUUUAUUCAGAAUUGCAACAGAGGAUUGAGCAUCA
# B13: ENSG00000070961:be:win_5751|3pUTR|ENSG00000070961|bound_else_gene|NA|bound_elsewhere_windowed (ssRNA)
# RNA: GGGAGUUCUACAGUCCGACGAUCCUAAAAAUUGACCCUAUCAACUGGAGAGCCCACAAGGCAUAGGGAAUAGAGAAAAGGGAAAUGUUUUCAGUUUUCUUUUUUAUUUUGGUUAUGCUUAAAUAUGAAUGUAAUUACCAAAAGCAACAGAGGAUUGAGCAUCA
# B14: chr9:26904889:26904990:-|3pUTR|ENSG00000137055|msi1|FALSE|bound_elsewhere (ssRNA)
# RNA: GGGAGUUCUACAGUCCGACGAUCAUAAUUUCUUGAUUUGUCAUUUAUAAAUCCUAAAGUAUAUUUGUUUAAUGGCCUAUUUUUAGAUGAAGAAAAAGCCAGUUGGUAAGCUGUGUUAGUCAUGUAUCAGUUCAGACAGACGAGCAACAGAGGAUUGAGCAUCA
# B15: chr22:38111494:38112305:-|three_prime_utr|ENSG00000184381|control|control|control (ssRNA)
# RNA: GGGAGUUCUACAGUCCGACGAUCAGGCCAAGCCCAGCCACUGCCCUCCCGGGCAGAUCUGGGCCCAGGCACCUCUGAGUCCAUAGACCAGGCCUGGGAGAAUGCCAAGCUGCCUGCCCGAGGCUGGUCCUGAAGGCCUGUCUCCAACAGAGGAUUGAGCAUCA
# B16: chr11:2944997:2945113:-|3pUTR|ENSG00000205531|unk|total|mutant (ssRNA)
# RNA: GGGAGUUCUACAGUCCGACGAUCCUGUGCCGAGCCGGGCCCUGUUCUCCUCCGGAUGUUGCUUCUUGAUUUUUUUUUUUUUUCCGGGGUGGGUCAGGGUUGUGACACACCAGCCCAGGUGAGAGCUGCUGCGGGUCACCUCAUCAACAGAGGAUUGAGCAUCA
# B17: chr2:46903092:46903222:-|3pUTR|ENSG00000180398|msi1|total|mutant (ssRNA)
# RNA: GGGAGUUCUACAGUCCGACGAUCAAGCAGAAACCCCUGAUAAACUGAUCAGAUCUCAUGAGACUUAUUCACUGUCACGAGAACCGCACGGGAAAGACUGGCCCCCAUGAUUCAAUUACCUCCCCCUGGGUCUGUCCCACAACACAACAGAGGAUUGAGCAUCA
# B18: chr17:77216858:77216994:+|3pUTR|ENSG00000129657|unk|FALSE|bound_elsewhere (ssRNA)
# RNA: GGGAGUUCUACAGUCCGACGAUCUGUUUCUACCUUUAGUACCUUGCCACUCUUUUAAAACGCUGCUGUCAUUUCCCAUUUCUUAGUACUAAUGAUUCUUUGAUUCUCCCUCUAUUAUGUCUUAAUUCACUUUCCUUCCUAAAUCAACAGAGGAUUGAGCAUCA
# B19: chr3:149084675:149084859:-|CDS|ENSG00000071794|unk|total|mutant (ssRNA)
# RNA: GGGAGUUCUACAGUCCGACGAUCCCAACUUUCUUUCCACGUUUUGAAUUCCAAGAUGUUAUCCCUCCAGAUGACUUUCUAACCCGUGAUGAAGAAGCCGAUUCCGUUUUAUUUGGAAGUUUGAGAGGUCAUGUGGUUGGACUACAACAGAGGAUUGAGCAUCA
# B20: chr10:60791946:60792061:+|CDS|ENSG00000170312|unk|FALSE|unique (ssRNA)
# RNA: GGGAGUUCUACAGUCCGACGAUCGUCAGCUCGUUACUCAACUCCAGUUGACAUUUGGAGUAUAGGCACCAUAUUUGCUGAACUAGCAACUAAGAAACCACUUUUCCAUGGGGAUUCAGAAAUUGAUCAACUCUUCAGGAUUUUCAACAGAGGAUUGAGCAUCA
# B21: chr13:52036708:52036809:-|3pUTR|ENSG00000197168|unk|FALSE|unique (ssRNA)
# RNA: GGGAGUUCUACAGUCCGACGAUCGUAGAACUUUUGAAUAUAGCCAUUAAUAUUUUUACUUUAAAGUUUCUAUUAAGAAAUCUUAGGCCGGGCAGUCUCAUCACUUUGGGAGGCCAAGGCAGGCAGAUCAUGAGGUCAGGAGUUCAACAGAGGAUUGAGCAUCA
# B22: chr6:35118271:35118501:-|CDS|ENSG00000124678|control|control|control (ssRNA)
# RNA: GGGAGUUCUACAGUCCGACGAUCUCAGCGGAUCCAUUUGUUUCUCAAAUGCUGUUUGGUUCUUGGUGUGCAGCGGUCUCUAUUAGACCUUCCUGGAGGCCUUACUCUCAUUGAAGCAGAACUGGCAGAACUGGGCCAAAAGUUCAACAGAGGAUUGAGCAUCA
# Biological target: MSI1 full-length (mouse, UniProt Q61474 1-362)
# Chain of UniProt Q61474 (Q61474 whole entry): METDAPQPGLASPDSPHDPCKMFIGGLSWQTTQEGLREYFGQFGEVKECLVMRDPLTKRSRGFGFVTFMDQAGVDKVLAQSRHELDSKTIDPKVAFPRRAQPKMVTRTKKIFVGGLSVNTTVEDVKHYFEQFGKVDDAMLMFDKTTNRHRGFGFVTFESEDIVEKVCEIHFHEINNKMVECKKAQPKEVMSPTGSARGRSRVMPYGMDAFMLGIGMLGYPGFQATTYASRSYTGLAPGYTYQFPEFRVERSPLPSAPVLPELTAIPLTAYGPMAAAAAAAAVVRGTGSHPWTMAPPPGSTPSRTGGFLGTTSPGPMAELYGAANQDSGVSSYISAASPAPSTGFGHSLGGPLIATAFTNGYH
# Experiment: nsRBNS (natural sequence RNA bind-n-seq); RBNS binding buffer (assumed for nsRBNS): 25 mM Tris pH 7.5, 150 mM KCl, 3 mM MgCl2, 0.01% Triton X-100, 500 ug/ml BSA, 20 U/ml SUPERase-In, 4 C; UNK is unkempt and MSI1 is Musashi-1; names of the RNAs are library labels; protein concentration not given here; high values mean tight binding
row,Binder,binding signal
1,B1,0.436 enrichment R
2,B2,0.351 enrichment R
3,B3,0.604 enrichment R
4,B4,1.16 enrichment R
5,B5,0.554 enrichment R
6,B6,0.414 enrichment R
7,B7,5.5 enrichment R
8,B8,0.685 enrichment R
9,B9,0.272 enrichment R
10,B10,0.886 enrichment R
11,B11,0.627 enrichment R
12,B12,1.5 enrichment R
13,B13,0.329 enrichment R
14,B14,6.82 enrichment R
15,B15,0.624 enrichment R
16,B16,0.872 enrichment R
17,B17,0.532 enrichment R
18,B18,6.66 enrichment R
19,B19,0.369 enrichment R
20,B20,0.331 enrichment R
21,B21,8.92 enrichment R
22,B22,0.403 enrichment R
